Results are given in words; binding and its absence hold for the method and conditions named. Binding seen in cells or lysates may run through a third protein. Some entries that bind do so weakly or less than the wild type. Sequences can lack the tags named with a protein. Each block holds one molecule with its values, some of them ahead of it.
Columns and labels:
[1] = molecular target: T1, murine CD81 with C-terminal 3xFLAG epitope, transiently expressed in HEK293 (mouse) (UniProt P35762); assay: co-IP; transient co-expression in HEK293 cells; lysis in IP buffer with 1% Triton X-100; 3xFLAG-tagged tetraspanin precipitated with anti-FLAG M2 agarose; Western blot
T1 sequence: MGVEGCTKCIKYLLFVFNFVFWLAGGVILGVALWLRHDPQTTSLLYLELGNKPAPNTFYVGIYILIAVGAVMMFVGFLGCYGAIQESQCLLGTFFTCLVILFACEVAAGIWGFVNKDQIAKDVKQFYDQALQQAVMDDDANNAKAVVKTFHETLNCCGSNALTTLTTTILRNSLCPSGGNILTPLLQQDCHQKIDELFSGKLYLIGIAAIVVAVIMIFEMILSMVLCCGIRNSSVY

By UniProt entry, the sequences of proteins in these tests, tags left out.
UniProt P06804: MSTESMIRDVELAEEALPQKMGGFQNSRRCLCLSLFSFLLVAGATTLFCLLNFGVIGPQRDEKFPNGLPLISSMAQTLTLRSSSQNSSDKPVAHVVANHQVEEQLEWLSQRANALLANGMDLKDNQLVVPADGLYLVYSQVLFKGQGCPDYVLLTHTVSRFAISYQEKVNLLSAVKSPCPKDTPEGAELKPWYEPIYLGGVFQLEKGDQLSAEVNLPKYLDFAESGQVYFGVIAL

[2] = molecular target: T2, murine CD9 with C-terminal 3xFLAG epitope, transiently expressed in HEK293 (mouse) (UniProt P40240); assay: as above
T2 sequence: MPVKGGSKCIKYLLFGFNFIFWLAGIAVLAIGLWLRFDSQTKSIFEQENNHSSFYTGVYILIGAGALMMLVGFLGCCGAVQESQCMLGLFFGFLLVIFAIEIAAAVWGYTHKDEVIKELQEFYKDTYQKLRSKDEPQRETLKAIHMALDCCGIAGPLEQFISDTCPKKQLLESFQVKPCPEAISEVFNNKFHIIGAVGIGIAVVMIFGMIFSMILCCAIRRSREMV

[3] = molecular target: T1, murine CD81 with C-terminal 3xFLAG epitope, transiently expressed in HEK293 (mouse); assay: co-IP; transient co-expression in HEK293 cells; lysis in IP buffer (50 mM Tris/HCl pH 7.4, 150 mM NaCl, 4 mM EDTA) with 1% Brij-98; 3xFLAG-tagged tetraspanin precipitated with anti-FLAG M2 agarose overnight at 4°C; Western blot
[4] = molecular target: T2, murine CD9 with C-terminal 3xFLAG epitope, transiently expressed in HEK293 (mouse); assay: as above
[5] = molecular target: T1, murine CD81 with C-terminal 3xFLAG epitope, transiently expressed in HEK293 (mouse); assay: as above; remark: listed apart in the source
[6] = molecular target: T3, murine CD82 with C-terminal 3xFLAG epitope, transiently expressed in HEK293 (mouse) (UniProt P40237); assay: as above
T3 sequence: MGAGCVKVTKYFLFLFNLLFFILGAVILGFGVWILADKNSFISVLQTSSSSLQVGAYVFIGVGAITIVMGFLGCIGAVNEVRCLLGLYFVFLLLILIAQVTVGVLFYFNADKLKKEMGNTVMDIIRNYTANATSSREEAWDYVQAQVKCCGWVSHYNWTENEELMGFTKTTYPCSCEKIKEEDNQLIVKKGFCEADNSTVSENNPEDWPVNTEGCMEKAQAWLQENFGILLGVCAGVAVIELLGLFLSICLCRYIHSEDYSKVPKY

[7] = molecular target: T2, murine CD9 with C-terminal 3xFLAG epitope, transiently expressed in HEK293 (mouse); assay: as above; remark: listed apart in the source
[8] = molecular target: T1, murine CD81 with C-terminal 3xFLAG epitope, transiently expressed in HEK293 (mouse); assay: condition: only extraction with 1% Triton X-100 (no TNF co-expressed); co-IP; transient co-expression in HEK293 cells; lysis in IP buffer with 1% Triton X-100; 3xFLAG-tagged tetraspanin precipitated with anti-FLAG M2 agarose; Western blot
[9] = molecular target: T3, murine CD82 with C-terminal 3xFLAG epitope, transiently expressed in HEK293 (mouse); assay: as above
[10] = molecular target: T2, murine CD9 with C-terminal 3xFLAG epitope, transiently expressed in HEK293 (mouse); assay: as above
[11] = molecular target: T4, murine CD81 with C-terminal 3xFLAG epitope, stably expressed in wild-type MEFs (mouse) (UniProt P35762); assay: co-IP; wild-type MEFs stably overexpressing 3xFLAG-tagged tetraspanin; lysis with 1% Brij-98; lysates pre-cleared with non protein-conjugated Sepharose beads; anti-FLAG M2 agarose; endogenous proteins detected by Western blot
T4 sequence: T1 sequence

[12] = molecular target: T5, murine CD82 with C-terminal 3xFLAG epitope, stably expressed in wild-type MEFs (mouse) (UniProt P40237); assay: as above
T5 sequence: T3 sequence

[13] = molecular target: T6, murine CD9 with C-terminal 3xFLAG epitope, stably expressed in wild-type MEFs (mouse) (UniProt P40240); assay: as above
T6 sequence: T2 sequence

[14] = molecular target: T1, murine CD81 with C-terminal 3xFLAG epitope, transiently expressed in HEK293 (mouse); assay: co-IP; transient co-expression in HEK293 cells; lysis in IP buffer with 1% Triton X-100; 3xFLAG-tagged tetraspanin precipitated with anti-FLAG M2 agarose; Western blot; remark: listed apart in the source
[15] = molecular target: T3, murine CD82 with C-terminal 3xFLAG epitope, transiently expressed in HEK293 (mouse); assay: as above
[16] = molecular target: T2, murine CD9 with C-terminal 3xFLAG epitope, transiently expressed in HEK293 (mouse); assay: as above; remark: listed apart in the source

Molecule: full-length, transmembrane murine tumor necrosis factor (TNF) with an N-terminal HA and a C-terminal V5 epitope (from UniProt P06804 1-235)
binding [1]: binds
binding [2]: binds
binding [3]: binds
binding [4]: binds

B2: endogenous SPPL2a of MEFs (enzyme, UniProt Q9JJF9 26-523)
chain: QEAILHASTNGVSSLSKDYCMYYNNNWTRLPSSLENATSLSLMNLTGTALCHLSDIPPDGIRNKAVVVHWGPCHFLEKARIAQEGGAAALLIANNSVLIPSSRNKSTFQNVTVLIAVITQKDFKDMKETLGDDITVKMYSPSWPNFDYTLVVIFVIAVFTVALGGYWSGLIELENMKSVEDAEDRETRKKKDDYLTFSPLTVVVFVVICCIMIVLLYFFYRWLVYVMIAIFCIASSMSLYNCLSALIHRMPCGQCTILCCGKNIKVSLIFLSGLCISVAVVWAVFRNEDRWAWILQDILGIAFCLNLIKTMKLPNFMSCVILLGLLLIYDVFFVFITPFITKNGESIMVELAAGPFENAEKLPVVIRVPKLMGYSVMSVCSVPVSVLGFGDIIVPGLLIAYCRRFDVQTGSSIYYISSTIAYAVGMIITFVVLMVMKTGQPALLYLVPCTLITVSVVAWSRKEMKKFWKGSSYQVMDHLDYSTNEENPVTTDEQIVQQ
binding [11]: binds
binding [12]: binds
binding [13]: binds

B3: endogenous SPPL2b of MEFs (enzyme, UniProt Q3TD49 20-578)
chain: EFGVLRVVSQTSRTRSRDYCILYNPQWAHLPHDLSKVSLLKLRDLSTTQLCSYLDVPAEDFTNQIALVARGNCTFYEKVRLAQGSGAHGLLIVSKEKLVPPGGNKTQYEEISIPVALLSHRDLQDIFRRFGREVMVALYAPSEPVMDYNMVIIFVMAVGTVAIGGYWAGSHDVKKYMKHKRDDGPEKQEDEAVDVTPVMICVFVVMCCFMLVLLYYFYDRLVYVIIGIFCLASSTGLYSCLAPFVRKLPFCTCRVPDNNLPYFHKRPQARMLLLALFCVTVSVVWGIFRNEDQWAWVLQDTLGIAFCLYMLKTIRLPTFKACTLLLLVLFIYDIFFVFITPFLTKSGNSIMVEVATGPSNSSTHEKLPMVLKVPRLNTSPLSLCDRPFSLLGFGDILVPGLLVAYCHRFDIQVQSSRIYFVACTIAYGLGLLVTFVALVLMQRGQPALLYLVPCTLLTSCTVALWRRELGAFWTGSGFAKDAPQTPWAATQGPVPPKAVGSSLSEQPPSEELAKSPLSTEEAGAADPAKDPDNPVASPLSPSNGDEAQPIPVVKPETSA
binding [11]: binds
binding [12]: binds
binding [13]: binds

B5: lysosomal protein TMEM192, endogenous in MEFs (protein, UniProt Q9CXT7 1-266)
chain: MAAAGRLEDSSLDILQSMDDDPLLDTQPLPHHSLQAQFRPRFHPLPTVIIANLLLLIHVVFVVLAFLTGVPCLYPNPTEDKCPENYTSPLKVQTAIILGKLILWILHLLFERYVQYHHRKVRSRGYSQIYRSTRHLKTLALTIHSSGNTALLLLLCVQHSFPEPSKLYLELILAVLALELICSLSCLILYIVKIRRFNRAKPLPDVLEEEKIYAYPSNTASETGFRTVSSLEEIVEKQEDIIVYLKRHNALLSKRLLELATQPART
binding [11]: no binding
binding [12]: no binding
binding [13]: no binding

Results, then the molecule that gave them:

binding [5]: binds
binding [6]: binds
binding [7]: binds
binding [8]: no binding
binding [9]: no binding
binding [10]: no binding
B1: murine SPPL2a fused to a C-terminal Myc-tag (enzyme, UniProt Q9JJF9 26-523)
chain: B2 chain

binding [14]: binds
binding [15]: binds
binding [16]: binds
binding [5]: binds
binding [6]: binds
binding [7]: binds
B4: murine SPPL2b fused to a C-terminal Myc-tag (enzyme, UniProt Q3TD49 20-578)
chain: B3 chain

— PMC10509304
